# Residue numbers refer to the chain shown, from its start. Some of the results follow.
# T1: RBFOX1 RRM RbFoxmut (Fox-RRM*) (Homo sapiens, UniProt Q9NWB1 109-208, R118D;E147R;N151S;E152T)
# T1 sequence: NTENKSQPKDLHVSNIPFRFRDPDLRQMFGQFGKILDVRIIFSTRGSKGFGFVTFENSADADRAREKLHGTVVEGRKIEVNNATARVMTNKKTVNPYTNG
# B1: CUCGUCG (DNA:RNA)
# RNA: GGGAGACCGGAAUUCAGAUUGUCCCUCGUCGUUAAAUCCCGUCGUAGCCACCA
# DNA 1: CAATCTGAATTCCGGTCTCCC
# DNA 2: TGGTGGCTACGACGGGATT
# B2: GGUCAUG (DNA:RNA)
# RNA: B1 RNA with C25G, U26G, C27U, G28C, U29A, C30U
# DNA 1: CAATCTGAATTCCGGTCTCCC
# DNA 2: TGGTGGCTACGACGGGATT
# B3: CAGCCAG (DNA:RNA)
# RNA: B1 RNA with U26A, C27G, G28C, U29C, C30A
# DNA 1: CAATCTGAATTCCGGTCTCCC
# DNA 2: TGGTGGCTACGACGGGATT
# B4: AACUAUA (DNA:RNA)
# RNA: B1 RNA with C25A, U26A, G28U, U29A, C30U, G31A
# DNA 1: CAATCTGAATTCCGGTCTCCC
# DNA 2: TGGTGGCTACGACGGGATT
# B5: UGGCGAA (DNA:RNA)
# RNA: GGGAGACCGGAAUUCAGAUUGUCCUGGCGAAUUAAAUCCCGUCGUAGCCACCA
# DNA 1: CAATCTGAATTCCGGTCTCCC
# DNA 2: TGGTGGCTACGACGGGATT
# B6: GGCUGCG (DNA:RNA)
# RNA: B1 RNA with C25G, U26G, G28U, U29G
# DNA 1: CAATCTGAATTCCGGTCTCCC
# DNA 2: TGGTGGCTACGACGGGATT
# B7: ACCUAAU (DNA:RNA)
# RNA: B1 RNA with C25A, U26C, G28U, U29A, C30A, G31U
# DNA 1: CAATCTGAATTCCGGTCTCCC
# DNA 2: TGGTGGCTACGACGGGATT
# B8: CACGGAU (DNA:RNA)
# RNA: B1 RNA with U26A, U29G, C30A, G31U
# DNA 1: CAATCTGAATTCCGGTCTCCC
# DNA 2: TGGTGGCTACGACGGGATT
# B9: GCUGGUG (DNA:RNA)
# RNA: B1 RNA with C25G, U26C, C27U, U29G, C30U
# DNA 1: CAATCTGAATTCCGGTCTCCC
# DNA 2: TGGTGGCTACGACGGGATT
# B10: GGCAAUC (DNA:RNA)
# RNA: B1 RNA with C25G, U26G, G28A, U29A, C30U, G31C
# DNA 1: CAATCTGAATTCCGGTCTCCC
# DNA 2: TGGTGGCTACGACGGGATT
# B11: CUAAACG (DNA:RNA)
# RNA: B1 RNA with C27A, G28A, U29A
# DNA 1: CAATCTGAATTCCGGTCTCCC
# DNA 2: TGGTGGCTACGACGGGATT
# B12: AUCGAGU (DNA:RNA)
# RNA: B1 RNA with C25A, U29A, C30G, G31U
# DNA 1: CAATCTGAATTCCGGTCTCCC
# DNA 2: TGGTGGCTACGACGGGATT
# B13: UGACCGG (DNA:RNA)
# RNA: B5 RNA with G27A, G29C, A30G, A31G
# DNA 1: CAATCTGAATTCCGGTCTCCC
# DNA 2: TGGTGGCTACGACGGGATT
# B14: AGGCGGG (DNA:RNA)
# RNA: B5 RNA with U25A, A30G, A31G
# DNA 1: CAATCTGAATTCCGGTCTCCC
# DNA 2: TGGTGGCTACGACGGGATT
# B15: UUCGGUU (DNA:RNA)
# RNA: B1 RNA with C25U, U29G, C30U, G31U
# DNA 1: CAATCTGAATTCCGGTCTCCC
# DNA 2: TGGTGGCTACGACGGGATT
# B16: CAACAGA (DNA:RNA)
# RNA: B5 RNA with U25C, G26A, G27A, G29A, A30G
# DNA 1: CAATCTGAATTCCGGTCTCCC
# DNA 2: TGGTGGCTACGACGGGATT
# B17: GGGGUCU (DNA:RNA)
# RNA: B1 RNA with C25G, U26G, C27G, G31U
# DNA 1: CAATCTGAATTCCGGTCTCCC
# DNA 2: TGGTGGCTACGACGGGATT
# B18: ACCGGGC (DNA:RNA)
# RNA: B1 RNA with C25A, U26C, U29G, C30G, G31C
# DNA 1: CAATCTGAATTCCGGTCTCCC
# DNA 2: TGGTGGCTACGACGGGATT
# B19: AAAAAGA (DNA:RNA)
# RNA: B5 RNA with U25A, G26A, G27A, C28A, G29A, A30G
# DNA 1: CAATCTGAATTCCGGTCTCCC
# DNA 2: TGGTGGCTACGACGGGATT
# B20: UGAUAAG (DNA:RNA)
# RNA: B5 RNA with G27A, C28U, G29A, A31G
# DNA 1: CAATCTGAATTCCGGTCTCCC
# DNA 2: TGGTGGCTACGACGGGATT
# B21: ACGUCGA (DNA:RNA)
# RNA: B5 RNA with U25A, G26C, C28U, G29C, A30G
# DNA 1: CAATCTGAATTCCGGTCTCCC
# DNA 2: TGGTGGCTACGACGGGATT
# B22: CGGUAGG (DNA:RNA)
# RNA: B1 RNA with U26G, C27G, G28U, U29A, C30G
# DNA 1: CAATCTGAATTCCGGTCTCCC
# DNA 2: TGGTGGCTACGACGGGATT
# B23: CGUUGUG (DNA:RNA)
# RNA: B1 RNA with U26G, C27U, G28U, U29G, C30U
# DNA 1: CAATCTGAATTCCGGTCTCCC
# DNA 2: TGGTGGCTACGACGGGATT
# B24: GCGAUGU (DNA:RNA)
# RNA: B1 RNA with C25G, U26C, C27G, G28A, C30G, G31U
# DNA 1: CAATCTGAATTCCGGTCTCCC
# DNA 2: TGGTGGCTACGACGGGATT
# B25: UCGAAAU (DNA:RNA)
# RNA: B5 RNA with G26C, C28A, G29A, A31U
# DNA 1: CAATCTGAATTCCGGTCTCCC
# DNA 2: TGGTGGCTACGACGGGATT
# B26: CGUCGUA (DNA:RNA)
# RNA: B5 RNA with U25C, G27U, A30U
# DNA 1: CAATCTGAATTCCGGTCTCCC
# DNA 2: TGGTGGCTACGACGGGATT
# B27: AUGGAAC (DNA:RNA)
# RNA: B1 RNA with C25A, C27G, U29A, C30A, G31C
# DNA 1: CAATCTGAATTCCGGTCTCCC
# DNA 2: TGGTGGCTACGACGGGATT
# B28: GAUGAUG (DNA:RNA)
# RNA: B1 RNA with C25G, U26A, C27U, U29A, C30U
# DNA 1: CAATCTGAATTCCGGTCTCCC
# DNA 2: TGGTGGCTACGACGGGATT
# B29: CUGUUUA (DNA:RNA)
# RNA: B1 RNA with C27G, G28U, C30U, G31A
# DNA 1: CAATCTGAATTCCGGTCTCCC
# DNA 2: TGGTGGCTACGACGGGATT
# B30: CGACCGG (DNA:RNA)
# RNA: B1 RNA with U26G, C27A, G28C, U29C, C30G
# DNA 1: CAATCTGAATTCCGGTCTCCC
# DNA 2: TGGTGGCTACGACGGGATT
# B31: UAGGGCA (DNA:RNA)
# RNA: B5 RNA with G26A, C28G, A30C
# DNA 1: CAATCTGAATTCCGGTCTCCC
# DNA 2: TGGTGGCTACGACGGGATT
# Molecular target: T1, RBFOX1 RRM RbFoxmut (Fox-RRM*)
# Assay: EMSA; HiTS-Eq, 1 nM pool, 10 min; buffer printed only for the single-RNA assays: 10 mM Tris pH 7.5, 150 mM NaCl, 3.4 mM EDTA, 0.001% NP-40, 30 C
# Details: tags: His6 N-terminal (pET28a); label: 5' 32P
# Outline: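 These values rest on relative association constants, computed from read-count changes of each RNA species versus the control reaction and normalised to the cognate motif. Reads came from free RNA recovered by 8% native PAGE after purified RbFox RRM (wild type or mutant) at increasing concentrations was equilibrated for 10 min in 50 µL with 1 nM of a 5′-radiolabelled pool with 7 randomized nucleotides and DNA-annealed flanks.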
row,Binder,binding signal
1,B1,0.0942 KA relative to UGCAUGU
2,B2,0.512 KA relative to UGCAUGU
3,B3,0.0687 KA relative to UGCAUGU
4,B4,0.108 KA relative to UGCAUGU
5,B5,0.122 KA relative to UGCAUGU
6,B6,0.14 KA relative to UGCAUGU
7,B7,0.082 KA relative to UGCAUGU
8,B8,0.0869 KA relative to UGCAUGU
9,B9,0.114 KA relative to UGCAUGU
10,B10,0.11 KA relative to UGCAUGU
11,B11,0.0745 KA relative to UGCAUGU
12,B12,0.149 KA relative to UGCAUGU
13,B13,0.044 KA relative to UGCAUGU
14,B14,0.119 KA relative to UGCAUGU
15,B15,0.0538 KA relative to UGCAUGU
16,B16,0.0476 KA relative to UGCAUGU

row,Binder,binding signal
1,B17,0.118 KA relative to UGCAUGU
2,B18,0.0846 KA relative to UGCAUGU
3,B19,0.0796 KA relative to UGCAUGU
4,B20,0.115 KA relative to UGCAUGU
5,B21,0.0987 KA relative to UGCAUGU
6,B22,0.0838 KA relative to UGCAUGU
7,B23,0.17 KA relative to UGCAUGU
8,B24,0.151 KA relative to UGCAUGU
9,B25,0.0789 KA relative to UGCAUGU
10,B26,0.0427 KA relative to UGCAUGU
11,B27,0.127 KA relative to UGCAUGU
12,B28,0.145 KA relative to UGCAUGU
13,B29,0.121 KA relative to UGCAUGU
14,B30,0.0704 KA relative to UGCAUGU
15,B31,0.0749 KA relative to UGCAUGU

# Reference: PMC9911399, “Two distinct binding modes provide the RNA-binding protein RbFox with extraordinary sequence specificity”
